{"source": "PubChem BioAssay (NCI)", "note": "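Method: 48-hour compound exposure of cells in 96-well plates, five concentrations, linear interpolation of endpoints. The concentration for 50% growth inhibition is given as GI50. TGI: total growth inhibition.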"}
{"test_system": "NCI-H322M lung", "assay": "NCI tumour cell line growth inhibition, 48 h", "units": {"GI50": "µM", "TGI": "µM"}}
{"smiles": "O=C(Nc1n[nH]c2cc(-c3cc(F)ccc3F)ccc12)C1CC1", "GI50": "> 25", "TGI": "> 25"}
{"smiles": "COc1ccc(N2C(=O)C3c4[nH]c5c(C)cccc5c4C4CCC(C(C)C)CC4C3C2=O)cc1", "note": "(stereo not given)", "TGI": 30.1}
{"smiles": "Cc1nnc2n1N=C(c1ccccc1)C(c1ccccc1)S2", "note": "(stereo not given)", "TGI": "> 100"}
{"smiles": "Nc1[nH]c(=O)nc2c1ncn2C1OC(CO)C(O)C1O", "note": "(stereo not given)", "TGI": "> 100"}
{"smiles": "COc1cc2c[n+]3c4c(c2c(OC)c1OC)CCCC4CC3", "note": "(stereo not given)", "TGI": "> 100"}
{"smiles": "Cc1cn(CCCCCCOC(=O)NC(CCCNC(N)=O)C(=O)O)c(=O)[nH]c1=O", "note": "(stereo not given)", "TGI": "> 100"}
{"smiles": "Cn1c(COC(=O)NCCc2ccccn2)nc2c(N3CCOCC3)nc(Cl)nc21", "GI50": 10.5, "TGI": 22.4}
{"smiles": "C/C(=C1\\N=C(c2ccccc2)OC1=O)c1ccccc1", "TGI": "> 100"}
{"smiles": "CCOC(=O)NC(=S)N(CC(=O)c1cc(OC)c(OC)c(OC)c1)c1ccc(Cl)cc1", "GI50": 33.6, "TGI": "> 100"}
{"smiles": "COc1ccc(CCNC(=O)Cc2ccccc2CO)cc1OC", "TGI": "> 100"}
{"smiles": "COC1=CC(=O)O/C1=C(\\OC)C1OC1c1ccccc1", "note": "(stereo not given)", "TGI": "> 100"}
{"smiles": "COc1cc2c(/C=C3/C(=O)Nc4ccccc43)c(Cl)n(Cc3ccc(Cl)cc3)c2cc1C", "TGI": 13.7}
{"smiles": "Clc1ccccc1C(Nc1cnccn1)Nc1cnccn1", "TGI": "> 100"}
{"smiles": "CN(C)C(=S)/N=c1\\ss/c(=N\\C(=S)N(C)C)n1-c1cccc(Cl)c1", "TGI": "> 100"}
{"smiles": "c1cnc2c(c1)-n1cccc1C1(CCCCC1)NN2", "TGI": "> 100"}
{"smiles": "Cc1cc(=O)[nH]c(NNC(C#N)c2cccc([N+](=O)[O-])c2)n1", "note": "(stereo not given)", "TGI": "> 100"}
{"smiles": "ClC1=NN=C(c2c[nH]c3ccccc23)CC1NCc1ccccc1", "note": "(stereo not given)", "TGI": "> 100"}
{"smiles": "CCOc1ccc2nc(NC(=O)C(=O)C(C(=O)c3ccccc3F)C3OC(=O)c4ccccc43)sc2c1", "note": "(stereo not given)", "TGI": 77}
{"smiles": "COc1cc2c(cc1OCCNC(=O)/C=C1\\C[C@H]3C=Nc4cc(OCc5ccccc5)c(OC)cc4C(=O)N3C1)N=C[C@@H]1CCCN1C2=O", "GI50": 21.2, "TGI": 59.7}
{"smiles": "CCOC(=O)c1c(-c2ccc(OC)cc2)ccn1C", "TGI": "> 10"}
{"smiles": "NC(=O)CCC(N=c1c2ccccc2n(O)c2ccccc12)C(=O)O", "note": "(stereo not given)", "TGI": "> 100"}
{"smiles": "C[n+]1cccc2ccc3cccnc3c21", "TGI": "> 100"}
{"smiles": "COc1cc2c(cc1C)NC(=O)/C2=C/c1ccnc2ccccc12", "GI50": 33.4, "TGI": "> 50"}
{"smiles": "Oc1ccc(C(O)C2CCCCN2)cc1O", "note": "(stereo not given)", "TGI": "> 100"}
{"smiles": "COc1cc(CCNC2=CC(=O)c3nc[nH]c3C2=O)ccc1O", "TGI": 76.8}
{"smiles": "O=C(c1ccccc1)C1N=NN(Cc2ccccc2[N+](=O)[O-])C1C(=O)c1ccccc1", "note": "(stereo not given)", "TGI": "> 100"}
{"smiles": "COC(=O)C(C(=O)C(=O)Nc1c(C)cccc1C(C)(C)C)c1nc2ccc(Cl)cc2[nH]c1=O", "note": "(stereo not given)", "TGI": "> 100"}
{"smiles": "COc1cc(C)c2c(c1)CN1CN2Cc2cc(OC)cc(C)c21", "TGI": "> 100"}
{"smiles": "Cc1ccccc1NC(=O)O/N=C(\\Cl)C(C)C", "TGI": 32.4}
{"smiles": "O=C1c2cc3c(cc2-c2c1c1cc(F)c(F)cc1c(=O)n2CCCn1ccnc1)OCO3", "GI50": 0.0977, "TGI": "> 100"}
{"smiles": "c1ccc2c(c1)[nH]c1c2nc2ccccn21", "TGI": "> 100"}
{"smiles": "Clc1ccc2c(c1)N(CCCN1CCCC13CCCCC3)c1ccccc1S2", "TGI": "> 53.3"}
{"smiles": "CCOc1ccc(NC(=O)/C(CC(=O)c2c[n+](=O)c3ccccc3n2[O-])=N\\OCCCc2ccccc2)cc1", "TGI": "> 100"}
{"smiles": "COc1cc2c(cc1OC)C(=O)N(c1ccc(OCCN3CCCC3)cc1)C2", "TGI": "> 100"}
{"smiles": "CCC1(c2ccc(N3C(=O)c4cccc5cc([N+](=O)[O-])cc(c45)C3=O)cc2)CCC(=O)NC1=O", "note": "(stereo not given)", "TGI": "> 100"}
{"smiles": "NC(=O)[C@H](Cc1ccc(O)cc1)Nc1c(O)c2c(c(O)c1Cl)C(=O)C=CC2=O", "TGI": "> 10"}
{"smiles": "CC(C)CCCC(C)[C@H]1CCC(C2C[C@@H](O)[C@@H]3CC(O)[C@@H](O)C[C@]3(CO)C2=O)[C@]1(C)CCO", "note": "(stereo not given in full)", "TGI": 72.6}
{"smiles": "COc1ccc(-n2c(=S)sc3c(Cl)nc(C)nc32)c(OC)c1", "GI50": 2.51, "TGI": 6.47}
{"smiles": "COc1ccc2c(c1)C(=O)c1c-2c(OCCCN(C)C)nc2cc(Br)ccc12", "GI50": 3.01, "TGI": 15.5}
{"smiles": "O=C1NC(=NCCc2ccc(Cl)cc2)S/C1=C\\c1ccc2ncccc2c1", "GI50": "> 25", "TGI": "> 25"}
{"smiles": "CC(C)(C)C#COC(=O)c1ccccc1", "TGI": "> 100"}
{"smiles": "C=C1C(=O)O[C@@H]2/C=C(/C)[C@@H](OC(C)=O)C/C=C(\\C)C(O)[C@@H](OC(=O)/C(C)=C\\C)C12", "note": "(stereo not given in full)", "TGI": "> 100"}
{"smiles": "CC(O)c1nc(C#N)c(N)o1", "note": "(stereo not given)", "TGI": "> 100"}
{"smiles": "O=C1CC23CCCCCCCCCCC2(C1)CC(=O)C3", "note": "(stereo not given)", "TGI": "> 100"}
{"smiles": "COC1(CC[C@@H](C)COC2OC(CO)C(O)C(O)C2O)OC2C[C@H]3[C@@H]4CC[C@H]5C[C@@H](OC6OC(CO)C(OC7OC(CO)C(O)C(O)C7O)C(O)C6OC6OC(C)C(O)C(O)C6O)[C@H](O)C[C@]5(C)[C@H]4CC[C@]3(C)C2[C@@H]1C", "note": "(stereo not given in full)", "TGI": 3.58}
{"smiles": "CC1=C(C)C(=O)C(C2=CC(=O)c3ccccc3C2=O)=C(C2=CC(=O)c3ccccc3C2=O)C1=O", "TGI": 46.2}
{"smiles": "O=c1c2cc(Br)cc(Br)c2[nH]c(=S)n1-c1ccc(N=Nc2ccc(O)c3cccnc23)cc1", "TGI": "> 100"}
{"smiles": "CCC[CH2][Sn-]([CH2]CCC)([CH2]CCC)[O]C(=O)C(C)C", "GI50": 0.133, "TGI": 0.264}
{"smiles": "COC1=CC(c2ccc[nH]2)=N/C1=C\\c1[nH]c(C)c(C(=O)CCCCCCCCC(=O)O[C@H]2CC[C@H]3C4CCc5cc(O)ccc5C4CC[C@]23C)c1C", "note": "(stereo not given in full)", "GI50": 2.52, "TGI": "> 50"}
